Laboratory results as given in PubChem BioAssay AID624417 (National Center for Advancing Translational Sciences (NCATS), 2012).
The campaign covered roughly 410,000 compounds. About 6,400 (1.6%) were called active. The shares of active, inactive and inconclusive entries below differ from those in the screen. Calls come from the whole dose curve; as a rule, active = well fitted inhibition curve with a large enough effect; inconclusive = small, poorly fitted or top-dose-only effect; inactive = no such curve, though single readings can be large or run the other way. Potencies of inconclusive entries are left out as doubtful fits.

Each compound was assayed against Glucagon-like peptide 1 receptor (Homo sapiens) (UniProt P43220) (assay: qHTS of GLP-1 Receptor Inverse Agonists (Inhibition Mode)). Details: HEK293 GLP-1R CRE-luciferase, luminescence, 24 h, GLP-1R form is constitutively active; activity change, negative = inhibition: at 38.3 µM (top of the series) unless noted.
Chain of UniProt P43220 (P43220 whole entry, looked up): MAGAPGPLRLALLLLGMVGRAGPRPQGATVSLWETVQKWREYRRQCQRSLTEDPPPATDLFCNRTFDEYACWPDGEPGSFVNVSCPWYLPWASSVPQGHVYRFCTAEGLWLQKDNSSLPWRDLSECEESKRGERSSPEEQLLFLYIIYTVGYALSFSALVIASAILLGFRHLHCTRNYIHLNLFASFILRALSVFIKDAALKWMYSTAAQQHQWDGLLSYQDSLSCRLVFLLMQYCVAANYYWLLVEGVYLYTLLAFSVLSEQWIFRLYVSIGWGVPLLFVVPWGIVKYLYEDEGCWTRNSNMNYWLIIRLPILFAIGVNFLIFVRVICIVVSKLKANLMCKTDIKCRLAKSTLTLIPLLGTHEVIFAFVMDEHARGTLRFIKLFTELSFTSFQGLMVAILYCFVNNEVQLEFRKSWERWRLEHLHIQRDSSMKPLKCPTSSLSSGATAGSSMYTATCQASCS
Summary of the method: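 qHTS in 1536-well format: reporter HEK293 cells expressing constitutive GLP-1R activity in DMEM + 10% Nu serum, 24 hr with compounds at 37 deg C, luminescence read after 12 min with detection reagent.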
% is set by controls: 0 for no effect and ±100 for the full control effect; potency is the fitted concentration of half-maximal effect; tags give direction and shape of the fitted curve.
Note: nearly all actives have a fitted effect of over 55% in size.

SMILES | Potency | activity change, negative = inhibition
O=C(c1cccs1)N1CCC(Cc2ccccc2)CC1 | inconclusive [inhibitor, partial curve] | 
C/C=C1\COC(C(=O)NCc2cccc(OC)c2OC)(C(F)(F)F)C=C1C=C1CCCCC1 (stereo unspecified) | inconclusive [inhibitor, single point] | 
COc1ccccc1[C@@H]1C(c2cccc(Cl)c2)=NN(c2ccccc2)[C@H]1C(=O)N1CCOC1=O | inconclusive [inhibitor, partial curve, poor fit] | 
CCOC(=O)C1=C(C)NC(C)=C(C(=O)OCC)C1/C=C/c1ccccc1 | inactive | 
CC(C)C1N=C(c2ccc3c(c2)OCO3)CC(c2ccccc2O)N1 (stereo unspecified) | active: 11.2 µM | 
Cc1cc(NC(=O)CCC(=O)N(c2ccc(F)cc2)C(C(=O)NC2CCCC2)c2ccccc2)no1 (stereo unspecified) | inactive | 
CCOC(=O)c1cnc2ccc(OC)cc2c1Nc1ccc(N2CCN(C)CC2)cc1 | inconclusive [inhibitor, single point] | 
CCOC(=O)C1CCCN(C(=O)c2[nH]c3ccccc3c2Sc2ccc(Cl)cc2)C1 (stereo unspecified) | active: 11.2 µM | 
COc1ccc(-c2nnc(S/C(=C/c3ccc(Cl)cc3)C(=O)O)o2)cc1 | inconclusive [inhibitor, single point] | 
COCc1c(C#N)c(NCc2cc(OC)c(OC)c(OC)c2)nc(C)c1[N+](=O)[O-] | inconclusive [inhibitor, partial curve, poor fit] | 
CCn1cc(C(=O)N2CCCC2)c(=O)c2cc(S(=O)(=O)N3CCOCC3)ccc21 | inactive | 
COc1ccccc1-c1nc(-c2ccc(C)nc2OC)no1 | inactive | 
S=c1[nH]nc(-c2ccc(Cl)cc2)n1CC1CCCO1 (stereo unspecified) | inactive | 
CC(C)C(=O)NC(=S)Nc1nnn(C)n1 | inactive | 
O=C(NCc1ccccc1Cl)c1cc2cccc3c2n1CCS3 | inconclusive [inhibitor, partial curve, poor fit] | 
COC(=O)c1cc(NC(=O)/C=C/c2ccc3c(c2)OCO3)cc(C(=O)OC)c1 | inactive | 
COC(=O)c1c(C(=O)OC)c(-c2ccc(Br)cc2)n2c1CS(=O)C2 (stereo unspecified) | inactive | 
NCCCC(=O)N1c2ccccc2Sc2ccc(Cl)cc21 |  | inconclusive: -69.3% [inhibitor]
CCN(CC)S(=O)(=O)c1cc(NC(=O)C(C)N2CCc3ccccc32)ccc1C (stereo unspecified) | inconclusive [inhibitor, partial curve, poor fit] | 
CC1CCN(c2ccc3c(c2)S(=O)(=O)c2cccc(C(=O)NC4CC4)c2C3=O)CC1 | inactive | 
CNc1nc(-c2ccc(S(=O)(=O)N3CCCCC3)cc2)cs1 | inconclusive [inhibitor, partial curve, poor fit] | 
CC(O)(CS(=O)(=O)Cc1ccccc1)c1ccc(Cl)cc1 (stereo unspecified) | inconclusive [inhibitor, single point] | 

SMILES | Potency | activity change, negative = inhibition
Cc1cccc(NC(=O)NCCN2CCN(c3ccccc3)CC2)c1C | inconclusive [inhibitor, single point] | 
CCN(c1ccccc1)S(=O)(=O)c1ccc(N)c(OC)c1 | inconclusive [inhibitor, partial curve] | 
Cc1[nH]c2ccccc2c1SCCNC(=O)c1ccccc1F | inconclusive [inhibitor, single point] | 
C[C@@]12C(=O)Nc3ccccc3C(=O)N1[C@H]1c3cc(Cl)ccc3OC[C@@H]1[C@@H]2c1ccccc1 | inconclusive [inhibitor, single point] | 
CCOc1ccc(C(C)NC(=O)Nc2ccc(F)cc2F)cc1 (stereo unspecified) | inconclusive [inhibitor, partial curve] | 
Cc1cc(C)cc(OCCNC(=O)c2cc(S(=O)(=O)N3CCOCC3)ccc2F)c1 | inconclusive [inhibitor, partial curve, poor fit] | 
O=C(NCc1ccccc1)C(c1ccc(C(F)(F)F)cc1)n1c(=O)c(-c2ccco2)nc2ccccc21 (stereo unspecified) | inconclusive [inhibitor, single point] | 
Cc1ccccc1NC(=S)NC(=O)/C=C/c1ccco1 | inactive | 
CSCCC(C(=O)Nc1c(C)cccc1C)N(Cc1ccccc1)Cc1ccccc1 (stereo unspecified) | inconclusive [inhibitor, partial curve, poor fit] | 
O=C1CCNc2ccc(-c3ccccc3)cc21 | inactive | 
C#CC1(O)CCCC2C3CCC4CC(OC(C)=O)CCC4(C)C3C(=O)CC21C (stereo unspecified) | inconclusive [inhibitor, single point] | 
Cc1ccc(CNC(=O)c2ccc(-c3nc(CS(=O)(=O)c4ccc(C)cc4)c(C)o3)cc2)cc1 | inactive | 
CN1CCN(C(=O)/C(=C/c2ccccc2F)NC(=O)c2ccccc2)CC1 | inactive | 
Cc1ccc(S(=O)(=O)N2CCC(n3c(C)nc4cccnc43)CC2)c(C)c1 | inactive | 
CCCN(CCC)Cc1cc(=O)oc2cc3c(cc12)CCC3 | inconclusive [inhibitor, partial curve, poor fit] | 
CCOc1ccc(CCNC(=O)c2cc3sc(CC)cc3n2C)cc1OCC | inconclusive [inhibitor, single point] | 
O=C(c1cccnc1)N1N=C(C2CCCCC2)CC1(O)C(F)(F)F (stereo unspecified) | inconclusive [inhibitor, partial curve, poor fit] | 
Cc1ccccc1CN(c1ccc(C(N)=O)cc1)S(C)(=O)=O | inconclusive [inhibitor, partial curve] | 
COc1ccc(/C=C/C(=O)NCC2COc3ccccc3O2)c(OC)c1 (stereo unspecified) | inconclusive [inhibitor, single point] | 
COc1cccc(S(=O)(=O)Nc2ccc3c(c2)[C@@H]2C[C@@H](CC(=O)NCc4ccc(Cl)cc4)O[C@@H](CO)[C@@H]2O3)c1 | inconclusive [inhibitor, single point] | 
O/N=C(\c1ccc(Cl)cc1)c1ncc(C(F)(F)F)cc1Cl | inconclusive [inhibitor, single point] | 
OCCC1CN(Cc2cc3c(cc2Cl)OCO3)CCN1C1CCCCC1 (stereo unspecified) | inconclusive [inhibitor, single point] | 

SMILES | Potency | activity change, negative = inhibition
O=C(Nc1ccc(C(=O)N2CCN(c3ccccc3)CC2)cc1)c1nsc2ccccc12 | inconclusive [inhibitor, partial curve] | 
CCCN(CCC)CCNC(=O)C1CCN(c2nc3ccc(CC)cc3s2)CC1 | inactive | 
COc1ccccc1NC(=O)NCC(c1ccco1)N1CCCCC1 (stereo unspecified) | inconclusive [inhibitor, single point] | 
COc1ccccc1CNC(=O)c1oc2ccc(S(=O)(=O)N3CCCC3)cc2c1C | inconclusive [inhibitor, single point] | 
CC(C)(C)OC(=O)N1CCC(c2c(C(=O)N3CCOCC3)cnn2-c2cccc(F)c2)CC1 | inactive | 
Clc1cccc(OCCN2CCN(CCOc3cccc(Cl)c3)CC2)c1 | inconclusive [inhibitor, partial curve, poor fit] | 
Nc1cccc(S(=O)(=O)Nc2ccc(Br)cc2)c1 | inconclusive [inhibitor, partial curve, poor fit] | 
Cc1cc(N2CCN(S(=O)(=O)c3ccc(Cl)c(Cl)c3)CC2)c2ccccc2n1 | inconclusive [inhibitor, single point] | 
Cc1cc(C)c(S(=O)(=O)N2CCCC(C(=O)NCCC3=CCCCC3)C2)c(C)c1 (stereo unspecified) | inconclusive [inhibitor, partial curve, poor fit] | 
Cc1ccc(-n2ncc3c(NCC(C)C)ncnc32)c(C)c1 | inconclusive [inhibitor, single point] | 
O=C(NCC1CCCO1)c1ccccc1OCc1ccc(F)cc1 (stereo unspecified) | inconclusive [inhibitor, partial curve, poor fit] | 
Cc1ccc(Nc2nc3nonc3[nH]c2=O)cc1Cl | inconclusive [inhibitor, single point] | 
COc1ccc(N2CCN(S(=O)(=O)CC34CCC(CC3=O)C4(C)C)CC2)cc1 (stereo unspecified) | inconclusive [inhibitor, partial curve, poor fit] | 
COc1ccc(NCc2nnc(SCC(=O)Nc3cc(C)cc(C)c3)o2)cc1 | inconclusive [inhibitor, single point] | 
CCc1ccc(NC(=O)Cn2cnc3sc(C)c(S(=O)(=O)N4CCN(c5ccccc5OC)CC4)c3c2=O)cc1 | inactive | 
O=C(C=NNc1ccccc1)c1ccccc1 | inconclusive [inhibitor, partial curve, poor fit] | 
COc1c(Br)cc(Br)cc1/C=N/NC(=O)c1cccnc1 | inconclusive [inhibitor, partial curve, poor fit] | 
Cc1cc2nc(-c3ccccc3)c(Cc3ccsc3)n2c(C)c1Br | inconclusive [inhibitor, partial curve, poor fit] | 
CC(=O)n1cc(C2CC(=O)OC3=C2CC(=O)C(C)(C)C3)c2ccccc21 (stereo unspecified) | inactive | 
O=C(c1ccc(Cl)cc1)N1CCCC(C(=O)N2CCc3ccccc3C2)C1 (stereo unspecified) | inconclusive [inhibitor, partial curve, poor fit] | 
Cc1cccc(CCNC(=O)C2CCN(c3nc4ccccc4nc3C(F)(F)F)CC2)c1 | inactive | 
O=S(=O)(c1ccc(F)cc1)N1CCN(c2nc(-c3cccnc3)nc3ccccc23)CC1 | inconclusive [inhibitor, single point] | 
